# Assay results as given in the supplement of paper PMC11417369.
# The other results are listed elsewhere or left out.
# Test system: PfHDP1 homeodomain (GST-tagged)
# Test: gcPBM binding intensity (ln(normalized median fluorescence intensity)); higher = stronger DNA binding
# Summary of the method: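 Using an Agilent 4 × 180k array, primer-extended double-stranded 36-bp intergenic genomic probes and negative controls were exposed for 1 h to GST-fused P. falciparum DNA-binding domains expressed in E. coli. Binding was carried out in 1× PBS with 1% milk, 0.2 mg/ml BSA, 0.5% salmon testes DNA and 0.03% Triton X-100, and protein was detected with Alexa488 anti-GST antibody and a 488 nm scan. Binding intensity is the highest Masliner-normalised natural-log median intensity across replicate spots of either probe orientation.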
row,Sequence,gcPBM binding intensity (ln)
1,TAATATTATATAAATTGTACTATTTTTTCCTTATTC [XGTACX_site5314],6.55
2,GTAAACAATTATGAACGTACATAAAATAAATGAACA [XGTACX_site7159],6.86
3,TGTCTTTTTAAGTTTTGTACATAAATATATTTCAAA [XGTACX_site427],6.95
4,AAAAAAAAAAAAAATACACACACATATATATATATA [CACACA_site8698],9.39
5,ATATAAGTTATTTTATACAAAAAAAAAAAAAAAAAT [CACACA_negctrl_site1190],6.27
6,AAGAATGTTAACGTTGCACACAAAAAAAAAGTATAC [CACACA_site8763],8.39
7,CTTTCATATGTTTTAACACACACGCATATATTATAG [CACACA_site7033],6.9
8,TATTTATGCACGCGTGCACACACATATGAAAAAAGG [CACACA_site9090],10.9
9,AATTGCTAATGGTACGAACACACATATAAAGATGCA [CACACA_site8634],6.73
10,TATACATAATATATATGTACATATATTCTTTATTTT [XGTACX_site4565],6.55
11,AAACAATAAAAGATTACACACATATATAGCATATAT [CACACA_site1698],6.82
12,ACCTTATAAAAAAAAAGTACATATATAAATAATAAA [XGTACX_site4338],7.7
13,TCAAATAATTTGTTGACACACACACCCACATACATA [CACACA_site8717],6.78
14,ATATTTTTTACTATTACACACAAGGGATTATTATTT [CACACA_site3915],6.87
15,TATATATATATTTTTTGTACATATTATATAATATAC [XGTACX_site5187],8.42
16,GAAAGACAAATTGTGACACACACAAAAAAAAAAAAA [CACACA_site9241],6.22
17,AAAAAAAAAAAAAAAAAAAAACACCCAAAAAAATAT [XGTACX_negctrl_site210],7.06
18,TTTTCATTTTTCTTTACACACATATATATATATATA [CACACA_site2236],9.23
19,ATATCAAATTCTGAAACACACAAAATTACACCTCTA [CACACA_site169],6.62

row,Sequence,gcPBM binding intensity (ln)
1,TTTTCGATATGCTTTTTTTTTCTACTGTCTTTTTAA [TGCATGCA_negctrl_site54],6.58
2,TTACTTAATAGACACACACACAAAAAAAAAAAAAAA [CACACA_site6572],6.41
3,CACATACATAAATACACACACAAAATAATAAAATAA [CACACA_site5304],6.69
4,CAAAAATATTATTATAGTACATAAATAATATATTTT [XGTACX_site6902],6.31
5,TCATTTATTGAGGAATGTACACGTAAAATTTAATAA [XGTACX_site4086],6.76
6,ATATATATTATAAAATGTACAAATGTTATATAAAAT [XGTACX_site4750],7.02
7,ATTTTTTTTTTTTTTTTCTTTTTTCTTCTTTTTTTT [CACACA_negctrl_site1223],5.98
8,TTTTTTTTTTTTTTATGTACATATATATATTTTATT [XGTACX_site6915],6.59
9,ACCTTATTTAGTTATAGTACACAAAGTATTAAACAT [XGTACX_site8418],7.64
10,TTTTTTTTTTTCTTCACACACAGTACTACTATTTAT [CACACA_site2409],6.56
11,TATATATATTTTTGTGTGCACTATAATATGAAAATA,10.3
12,GCGAATAATATGGACATACACACATATACATACATA [CACACA_site2115],6.97
13,TTACATATTATACGAAGTACGTACAAATACTTATAT [XGTACX_site8598],6.53
14,TTGCATTGTCCATGCGCACACACTACTAGAATAATA [CACACA_site3678],7.06
15,TTTTTTTTTTTTTTTTTTAAACACCTCAAAAAAAAA [CACACA_negctrl_site807],6.18
16,TAAAGGAAATAAAAAACATGCAAATATGAAATATAT [TGCATGCA_site745],6.74
17,AATTATAAATTGGACACACACATAAAAAATATGTAC [CACACA_site221],6.4
18,TAAAAAAAAACATGTGCACACGTTTTATCTACATAA [CACACA_site2336],10.8
19,ATACATAATAACTCCTGTACTTAAAAATGTATATAT [XGTACX_site1071],6.52

row,Sequence,gcPBM binding intensity (ln)
1,AATGTATTATGTCTTCGTACACATAAATAAATAAAT [XGTACX_site4004],6.41
2,TATATAATTATTTATTGTACACTCAAATCGATAAGG [XGTACX_site3216],6.98
3,ATCTTGAAGATTATTTGTACACAAAAGTTAAAATAT [XGTACX_site242],6.46
4,GGATTAATATATTTACCACACACCCATTTCGATTTT [CACACA_site9200],6.68
5,ATATAAATATATTTTACACACAATGGAGAAAAAAAT [CACACA_site6450],6.6
6,TATTTATAAATATAAACACACAACATTCTATGCATA [CACACA_site3243],6.48
7,AACGAACACTATTACACACATACATACATATGTATG [CACACA_site1859],6.83
8,TTGTTTATTTGTAAAGCTAACAAGAAATGTGAATAT [CACACA_negctrl_site931],6.74
9,TTATTATTATAAAATTGTACTTGGTATATTAACATA [XGTACX_site5829],6.06
10,TATACATAAAAATGATGTACATATAATATATATATA [XGTACX_site3863],8.24
11,GTCAAAAGTTTTTAAGGTACACTTATTTTATTATAA [XGTACX_site7004],6.17
12,ATGTAATATATGCGGAAATATATTCACAAGACGTCA [CACACA_negctrl_site373],6.36
13,GAAAAAAAATCCAAGATGCACTATTATTACAAAAAT [GTGCAC_site9516],8.05
14,ACCTTTATTGTATGAACACACATAAGCTGATACATC [CACACA_site4028],7.07
15,CACTAAACATATACACGTACATGCAACGGATTTTTT [XGTACX_site461],6.76
16,TGGATGTTAATATAGTGTACATTTATAAGTCAGTAT [XGTACX_site2949],6.71
17,GTGGAAAAAAATAATTGTACACAATAATAAATATAT [XGTACX_site2414],6.71
18,TAGTATTGTAAAAAAAAAAAAGAAAAAAAAAAAAAA [CACACA_negctrl_site977],6.22
